Structures can show the parent of a compound that is named as a salt. Some results were stated once for a whole list of compounds, not compound by compound.
Each molecule was assayed against T1, histamine H3 receptor (Homo sapiens, UniProt Q9Y5N1) (assay: Histamine H3 functional antagonist assay ([35S]GTPgammaS SPA on membranes of CHO K1 cells expressing human H3)). Settings: functional antagonism against 0.3 μM histamine, GTPγS binding, membrane preparation.
T1 construct: expressed in transfected cells; host or cells: CHO K1 cells carrying pSwitch, transfected with pGeneH3, induced with mifepristone; clone 3H3; membranes
T1 sequence (Q9Y5N1 whole entry): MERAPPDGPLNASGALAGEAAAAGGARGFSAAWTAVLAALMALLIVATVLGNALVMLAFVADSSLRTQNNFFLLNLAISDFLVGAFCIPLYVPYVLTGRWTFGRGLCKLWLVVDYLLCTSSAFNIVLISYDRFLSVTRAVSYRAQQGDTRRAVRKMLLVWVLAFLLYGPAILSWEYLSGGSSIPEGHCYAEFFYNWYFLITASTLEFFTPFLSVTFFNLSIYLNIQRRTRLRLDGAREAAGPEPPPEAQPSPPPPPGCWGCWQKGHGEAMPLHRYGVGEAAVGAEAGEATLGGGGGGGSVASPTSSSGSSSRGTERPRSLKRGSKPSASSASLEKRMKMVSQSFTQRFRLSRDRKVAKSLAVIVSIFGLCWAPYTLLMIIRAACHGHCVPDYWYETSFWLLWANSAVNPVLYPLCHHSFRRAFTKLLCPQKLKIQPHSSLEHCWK
Type: biochemical
`O=C(c1ccc(OCCCN2CCCCC2)cc1)N1CCc2ccccc2C1` [Example E3, N-[4-(3-Piperidin-1-ylpropoxy)benzoyl]-3,4-dihydro-1H-isoquinoline hydrochloride] showed a pKb of at least 7.5. In the case of `Nc1ccc2c(c1)CN(C(=O)c1ccc(OCCCN3CCCCC3)cc1)C2` [Example E13, N-[4-(3-Piperidin-1-ylpropoxy)-benzoyl]-5-aminoisoindoline hydrochloride], the pKb is reported as at least 7.5. For `O=C(c1ccc(OCCCN2CCCCC2)cc1)N1Cc2ccc(N3C(=O)CCC3=O)cc2C1` [Example E14, N-[4-(3-Piperidin-1-ylpropoxy)-benzoyl]-5-(1-succinimido)-isoindoline hydrochloride], the pKb was at least 7.5. In the case of `CS(=O)(=O)c1ccc2c(c1)CCN(C(=O)c1ccc(OCCCN3CCCCC3)cc1)CC2` [Example E20, N-[4-(3-Piperidin-1-ylpropoxy)benzoyl]-7-methylsulfonyl-2,3,4,5-tetrahydro-1H-3-benzazepine hydrochloride], the pKb is reported as at least 7.5. `N#Cc1ccc2c(c1)CCN(C(=O)c1ccc(OCCCN3CCCCC3)cc1)CC2` [Example E54, N-[4-(3-Piperidin-1-ylpropoxy)benzoyl]-7-cyano-2,3,4,5-tetrahydro-1H-3-benzazepine hydrochloride] was tested, and the pKb was at least 8.5. Molecule `O=C(c1ccc(OCCCN2CCCCC2)cc1)N1Cc2cccc(F)c2C1` [Example E55, N-[4-(3-Piperidin-1-ylpropoxy)benzoyl]-4-fluoroisoindoline hydrochloride] has a pKb of at least 8.5. `O=C(c1ccc(OC2CCN(C3CCC3)CC2)cc1)N1Cc2ccccc2C1` [Example E59, N-{4-[(1-Cyclobutyl-4-piperidinyl)oxy]benzoyl}isoindoline hydrochloride] showed a pKb of at least 8.5. Work on `O=C(c1ccc(OC2CCN(C3CCC3)CC2)cc1)N1Cc2ccc(F)cc2C1` [Example E60, N-{4-[(1-Cyclobutyl-4-piperidinyl)oxy]benzoyl}-5-fluoro-isoindoline hydrochloride] yielded a pKb of at least 8.5. `O=C(c1ccc(OCCCN2CCCCC2)cc1Cl)N1Cc2ccccc2C1` [Example E61, N-[2-Chloro-4-(3-Piperidin-1-ylpropoxy)benzoyl]isoindoline hydrochloride] gave a pKb of at least 8.5. With `O=C(c1ccc(OC2CCN(C3CCC3)CC2)cc1Cl)N1Cc2ccccc2C1` [Example E64, N-{2-Chloro-4-[(1-cyclobutyl-4-piperidinyl)oxy]benzoyl}isoindoline hydrochloride] the pKb was at least 8.5. Work on `O=C(c1ccc(OC2CCN(C3CCC3)CC2)cc1Cl)N1Cc2ccc(F)cc2C1` [Example E65, N-{2-Chloro-4-[(1-cyclobutyl-4-piperidinyl)oxy]benzoyl}-5-fluoro-isoindoline hydrochloride] yielded a pKb of at least 8.5.

— US7446103B2, “Bicyclic benzamide compound as histamine H3 receptor ligand useful in the treatment of neurological diseases” (Glaxo Group Limited, priority 2002, dated 2008)
